# Reference: the supplement of paper PMC4967469
# Lines with a small IC50 respond at low doses; a limit (>, <) means that the fit lies beyond the doses tested. The AUC spans the tested range (256-fold, ending at the top dose) of the same fit; values near 1 show little effect. For some assays here: Any top dose called inferred was calculated from the reported fits.
# Legend:
# Assay in all cases: Viability of human cancer cell lines after 72 h of drug (GDSC screen)
# [1] = compound: Cc1nc(Nc2ncc(C(=O)Nc3c(C)cccc3Cl)s2)cc(N2CCN(CCO)CC2)n1 [Dasatinib]; conditions: top dose 1.28 µM
# Method: (§1)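 Human cancer cell lines in 384-well plates, medium with 10% serum, drug for 72 h over a 256-fold dose range (nine 2-fold or five 4-fold steps up to the top dose). Adherent lines were fixed and stained with the nucleic acid dye Syto60, suspension lines read with resazurin; signal relative to control wells, capped at 0 and 100%. One two-parameter sigmoid per drug and line, fitted in a mixed model over all curves with the slope shared within a line.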
# [2] = compound: Cc1cc([N+](=O)[O-])ccc1NS(=O)(=O)c1cc(Cl)ccc1Cl [FH535]; conditions: top dose 32 µM; top dose inferred
# Method: as §1
# [3] = compound: COc1cc(N2CCN(C)CC2)ccc1Nc1nc(N)c(C(=O)c2c(Cl)cccc2Cl)s1 [XMD14-99]; conditions: top dose 10.24 µM; top dose inferred
# Method: as §1
# [4] = compound: Cc1n[nH]c2ccc(-c3cncc(OC[C@@H](N)Cc4c[nH]c5ccccc45)c3)cc12 [A-443654]; conditions: top dose 1.024 µM; top dose inferred
# Method: as §1
# [5] = compound: O=C(NC1CCNCC1)c1n[nH]cc1NC(=O)c1c(Cl)cccc1Cl [AT-7519]; conditions: top dose 10.24 µM; top dose inferred
# Method: as §1
Cell Line,AUC [1],IC50 [1] [nM],AUC [2],IC50 [2] [nM],AUC [3],IC50 [3] [nM],AUC [4],IC50 [4] [nM],AUC [5],IC50 [5] [nM]
"KARPAS-620 (haematopoietic neoplasm, suspension)",0.887,1070,0.524,2300,0.968,> 10200,0.536,79.2,0.293,185
"OMC-1 (cervix, adherent)",0.97,> 1280,0.703,7680,0.982,> 10200,0.697,235,0.722,2830
"NCI-H2135 (non-small cell lung carcinoma, adherent)",0.978,> 1280,0.718,8110,0.98,> 10200,0.912,> 1020,0.568,977
"HC-1 (hairy cell leukaemia, suspension)",0.891,> 1280,0.726,8510,0.872,9070,0.673,190,0.296,175
"EW-1 (Ewing sarcoma, semi-adherent)",0.937,> 1280,0.816,15900,0.83,5730,0.704,228,0.396,341
"NCI-SNU-16 (stomach, suspension)",0.975,> 1280,0.926,> 32000,0.991,> 10200,0.801,432,0.556,893
"CA46 (Burkitt lymphoma, suspension)",0.927,> 1280,0.683,6770,0.923,> 10200,0.893,> 1020,0.268,132
"L-428 (Hodgkin lymphoma, suspension)",0.993,> 1280,0.779,11400,0.979,> 10200,0.904,> 1020,0.872,7750
"MDST8 (large intestine, adherent)",0.977,> 1280,0.943,> 32000,0.983,> 10200,0.941,> 1020,0.882,> 10200
"SBC-1 (small cell lung carcinoma, suspension)",0.813,660,0.892,> 32000,0.989,> 10200,0.641,154,0.863,8310
"GOTO (neuroblastoma, adherent)",0.959,> 1280,0.921,> 32000,0.969,> 10200,0.759,405,0.808,6210
"KP-N-YS (neuroblastoma, adherent)",0.832,990,0.791,16700,0.935,> 10200,0.846,912,0.555,926
"SW872 (soft tissue, adherent)",0.412,47,0.699,6810,0.989,> 10200,0.732,272,0.958,> 10200
"MRK-nu-1 (breast, suspension)",0.971,> 1280,0.557,2830,0.99,> 10200,0.579,103,0.941,> 10200
"BC-3 (B-cell lymphoma, suspension)",0.969,> 1280,0.723,7880,0.965,> 10200,0.76,326,0.32,214
"JVM-3 (lymphoid neoplasm, suspension)",0.976,> 1280,0.921,> 32000,0.986,> 10200,0.921,> 1020,0.721,2750
"MOLT-4 (lymphoblastic leukaemia, suspension)",0.897,1060,0.786,11100,0.963,> 10200,0.598,113,0.262,158
"TE-6 (oesophagus, adherent)",0.827,972,0.818,22000,0.978,> 10200,0.738,349,0.977,> 10200
"P31-FUJ (acute myeloid leukaemia, suspension)",0.996,> 1280,0.954,> 32000,0.996,> 10200,0.987,> 1020,0.901,7620
"MEG-01 (chronic myeloid leukaemia, suspension)",0.028,< 5,0.831,18600,0.982,> 10200,0.885,1010,0.746,3100
"MC-CAR (haematopoietic neoplasm, suspension)",0.915,> 1280,0.707,7120,0.952,> 10200,0.914,> 1020,0.483,577
"SLVL (B-cell lymphoma, suspension)",0.853,1090,0.737,9940,0.925,> 10200,0.614,134,0.165,56.3
"VCaP (prostate, adherent)",0.968,> 1280,0.871,> 32000,0.908,> 10200,0.779,433,0.662,1830
"NCI-H747 (large intestine, adherent)",0.512,87.1,0.707,8830,0.912,> 10200,0.555,93.5,0.485,579
"BE-13 (lymphoblastic leukaemia, suspension)",0.916,> 1280,0.71,7470,0.94,> 10200,0.8,457,0.322,212

Cell Line,AUC [1],IC50 [1] [nM],AUC [2],IC50 [2] [nM],AUC [3],IC50 [3] [nM],AUC [4],IC50 [4] [nM],AUC [5],IC50 [5] [nM]
"697 (lymphoblastic leukaemia, suspension)",0.675,220,0.725,7440,0.859,5930,0.388,33.7,0.206,111
"DMS-79 (small cell lung carcinoma, suspension)",0.956,> 1280,0.979,> 32000,0.985,> 10200,0.804,613,0.852,10000
"EM-2 (chronic myeloid leukaemia, suspension)",0.106,< 5,0.792,16600,0.981,> 10200,0.741,348,0.388,303
"YT (lymphoid neoplasm, suspension)",0.991,> 1280,0.556,2770,0.963,> 10200,0.992,> 1020,0.855,6300
"MFH-ino (soft tissue, adherent)",0.423,–,0.322,581,0.979,> 10200,0.638,166,0.839,8840
"ES5 (Ewing sarcoma, adherent)",0.981,> 1280,0.74,10900,0.894,> 10200,0.955,> 1020,0.362,251
"HOP-62 (lung adenocarcinoma, adherent)",0.33,26.9,0.623,4360,0.975,> 10200,0.631,147,0.438,433
"SK-PN-DW (Ewing sarcoma, adherent)",0.944,> 1280,0.755,11200,0.985,> 10200,0.701,242,0.76,3730
"NCI-H1975 (lung adenocarcinoma, adherent)",0.404,41.9,0.707,8420,0.978,> 10200,0.631,156,0.529,778
"NCI-H847 (small cell lung carcinoma, adherent)",0.986,> 1280,0.594,3430,0.911,9740,0.712,221,0.859,6030
"JAR (urogenital system, adherent)",0.961,> 1280,0.868,28300,0.986,> 10200,0.637,151,0.234,111
"KLE (endometrium, adherent)",0.528,99.1,0.696,9780,0.978,> 10200,0.637,189,0.713,3630
"EC-GI-10 (oesophagus, adherent)",0.981,> 1280,0.84,21700,0.989,> 10200,0.888,> 1020,0.955,> 10200
"ST486 (Burkitt lymphoma, suspension)",0.937,> 1280,0.651,4960,0.894,9920,0.694,208,0.148,62.2
"NCI-H1581 (large cell lung carcinoma, semi-adherent)",0.969,> 1280,0.758,10300,0.99,> 10200,0.811,492,0.832,5830
"HUTU-80 (digestive system, adherent)",0.726,306,0.404,–,0.981,> 10200,0.595,111,0.842,5460
"EB-3 (Burkitt lymphoma, suspension)",0.789,670,0.565,3100,0.902,> 10200,0.745,368,0.338,210
"LXF-289 (lung adenocarcinoma, adherent)",0.385,38.8,0.604,3830,0.974,> 10200,0.638,153,0.559,924
"HCC2218 (breast, suspension)",0.981,> 1280,0.598,3990,0.982,> 10200,0.692,256,0.456,472
"ATN-1 (T-cell lymphoblastic leukaemia, suspension)",0.977,> 1280,0.786,12900,0.946,> 10200,0.801,461,0.225,108
"SW982 (soft tissue, adherent)",0.241,13.9,0.765,12100,0.969,> 10200,0.653,173,0.969,> 10200
"EW-11 (Ewing sarcoma, adherent)",0.976,> 1280,0.867,> 32000,0.892,> 10200,0.981,> 1020,0.478,549
"ONS-76 (medulloblastoma, adherent)",0.736,402,0.683,6780,0.969,> 10200,0.756,374,0.366,265
"TALL-1 (T-cell lymphoblastic leukaemia, suspension)",0.988,> 1280,0.845,21600,0.989,> 10200,0.711,245,0.728,2740
